± gives the uncertainty stated by the source. The list shows a part of the results. Phosphotyrosine is written y.
Biological target: GRB2 (endogenous complexes from cell lysate), P62993
Test: GRB2 complex binding differential signal (pY peptide minus Ala control peptide) (fluorescence intensity units); higher = stronger GRB2 complex binding
Conditions: MCF7
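Also: phosphopeptide probes on the chip at 1–4 µM, lysate proteins bound in 20 mM Tris pH 7.0 buffer with 140 mM NaCl, 1% Triton X-100 and 5% glycerol.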

Binder	GRB2 complex binding differential signal
yEMKEI [VAV3_439/A1]	782 ± 480
yEDIIK [VAV2_172/A1]	684 ± 290
yVSSES [ABL1_185/A1]	1240 ± 180
yRQGCA [TYRO3_686/A1]	1230 ± 380
yTFDKT [VAV2_529/A1]	777 ± 450
yGTGSA [TR150_228/A1]	981 ± 400
yVMPAE [BLNK_84/A1]	5490 ± 730
yYRQGC [TYRO3_685/A1]	253 ± 280
yGRVGW [VAV1_826/A1]	-88 ± 250
yIHPTE [BLNK_189/A1]	5990 ± 1300
yRSLEE [VAV2_142/A1]	912 ± 320
ySPAHN [TR150_54/A1]	-464 ± 1300
ySTPPI [VEGFR1_1333/A1]	16800 ± 3100
yVRKGD [VEGFR1_1053/A1]	1180 ± 2600
yDLKDF [VAV1_441/A1]	346 ± 260
ySGLSD [VAV1_142/A1]	502 ± 300

Same assay, conditions: MCF10A

Binder	GRB2 complex binding differential signal
yEMKEI [VAV3_439/A1]	862 ± 170
yEDIIK [VAV2_172/A1]	897 ± 700
yVSSES [ABL1_185/A1]	1050 ± 450
yRQGCA [TYRO3_686/A1]	745 ± 490
yTFDKT [VAV2_529/A1]	25.1 ± 270
yGTGSA [TR150_228/A1]	824 ± 230
yVMPAE [BLNK_84/A1]	3390 ± 1200
yYRQGC [TYRO3_685/A1]	169 ± 400
yGRVGW [VAV1_826/A1]	-2.72 ± 600
yIHPTE [BLNK_189/A1]	3760 ± 870
yRSLEE [VAV2_142/A1]	778 ± 300
ySPAHN [TR150_54/A1]	235 ± 530
ySTPPI [VEGFR1_1333/A1]	11400 ± 2200
yVRKGD [VEGFR1_1053/A1]	1290 ± 370
yDLKDF [VAV1_441/A1]	127 ± 210
ySGLSD [VAV1_142/A1]	169 ± 260

Same assay, conditions: MDA-MB-231

Binder	GRB2 complex binding differential signal
yEMKEI [VAV3_439/A1]	1280 ± 450
yEDIIK [VAV2_172/A1]	1150 ± 520
yVSSES [ABL1_185/A1]	1130 ± 290
yRQGCA [TYRO3_686/A1]	356 ± 310
yTFDKT [VAV2_529/A1]	849 ± 440
yGTGSA [TR150_228/A1]	506 ± 290
yVMPAE [BLNK_84/A1]	1800 ± 400
yYRQGC [TYRO3_685/A1]	100 ± 250
yGRVGW [VAV1_826/A1]	172 ± 410
yIHPTE [BLNK_189/A1]	1970 ± 420
yRSLEE [VAV2_142/A1]	962 ± 340
ySPAHN [TR150_54/A1]	1010 ± 470
ySTPPI [VEGFR1_1333/A1]	9140 ± 1100
yVRKGD [VEGFR1_1053/A1]	478 ± 240
yDLKDF [VAV1_441/A1]	422 ± 340
ySGLSD [VAV1_142/A1]	1530 ± 480

Same assay, conditions: T47D

Binder	GRB2 complex binding differential signal
yEMKEI [VAV3_439/A1]	1290 ± 1100
yEDIIK [VAV2_172/A1]	907 ± 1100
yVSSES [ABL1_185/A1]	1530 ± 1000
yRQGCA [TYRO3_686/A1]	1040 ± 2900
yTFDKT [VAV2_529/A1]	725 ± 3700
yGTGSA [TR150_228/A1]	522 ± 1300
yVMPAE [BLNK_84/A1]	1890 ± 1500
yYRQGC [TYRO3_685/A1]	48.2 ± 1500
yGRVGW [VAV1_826/A1]	-30.3 ± 990
yIHPTE [BLNK_189/A1]	1170 ± 1800
yRSLEE [VAV2_142/A1]	315 ± 1100
ySPAHN [TR150_54/A1]	-335 ± 1400
ySTPPI [VEGFR1_1333/A1]	7420 ± 1500
yVRKGD [VEGFR1_1053/A1]	557 ± 880
yDLKDF [VAV1_441/A1]	252 ± 1400
ySGLSD [VAV1_142/A1]	2970 ± 1700

From the supplement of paper PMC3694890
